Assay results as given in PMC5836133.
The list shows a part of the results. At the low end of the ranking the order means little.

System: T1, GST-NbGlk1(82-244)
T1 sequence: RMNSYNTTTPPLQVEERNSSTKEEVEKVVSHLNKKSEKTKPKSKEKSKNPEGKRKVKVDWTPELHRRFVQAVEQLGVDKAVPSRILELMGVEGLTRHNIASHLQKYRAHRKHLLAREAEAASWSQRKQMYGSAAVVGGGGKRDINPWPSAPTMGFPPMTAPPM
Assay: protein-binding microarray;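 also: rank-based score ranging −0.5 to +0.5 with E above 0.45 taken as significant binding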
Details: NbGlk1 is a Golden2-like transcription factor of Nicotiana benthamiana; high values mean tight binding; most listed sequences are background and not binding sites; double strand, one strand shown

Sequence	binding signal [E-score]
ACTGTCAG	-0.148
AACCTCCT	-0.212
AATGACGA	-0.0116
ACAACGGA	0.0678
AGAAGATA	0.26
AGCCCTTA	-0.299
AACAGAGT	-0.0944
ACAACCAT	-0.161
ATGCCCTA	-0.162
ATGAAGCA	-0.092
ATTCAAGC	-0.0708
ATATAAGG	0.0598
ACACCCCT	-0.207
AATGAAAT	0.236
ACGGCGCC	-0.205
AGCCAACG	-0.362
ATCTGGCC	0.195
ACCACCCT	-0.151
AGCGGTTC	-0.116
ACCATAAA	0.166
ACGATGAG	-0.126
CACTACTG	-0.065

Sequence	binding signal [E-score]
CAGACGGC	-0.256
ATTAAATG	0.0475
ATACGGAG	0.0606
ATCTATAC	0.231
ACTGGGGG	-0.132
ACCAAACG	-0.109
AGTGCATG	-0.101
AGCTTCTA	-0.0236
ACAACAGC	-0.0918
AAATTGAG	0.045
ATATAGAT	0.352
AAGTGTTC	-0.0902
ACTTACTG	-0.0165
CAGCATGC	-0.209
AGAGCATA	0.0141
ATGCGGCA	-0.0795
ATTCCTCA	0.286
CAGACACC	-0.112
AATTAGGA	0.0996
ATGTCGGG	-0.168
AGACTGGA	0.0227
CAACTACA	-0.11

Sequence	binding signal [E-score]
ACAACTCC	-0.147
AATCAGAA	0.333
AAACTGGG	-0.114
CACTCGGG	-0.0887
ACCTAGAT	0.291
ATCACAAT	0.24
ATCTACAT	0.296
ACGTTTTG	-0.00795
ATCAGCGC	0.0548
AAGATTGC	0.443
ACTATTAG	0.00525
AAAGATAC	0.21
ATCGTAAA	0.239
ATGAAAAC	0.137
AGATAGCT	0.0834
AAACTAAA	0.144
ACTAGCAT	-0.043
AGACTGCC	-0.333
AGTATACA	0.135
ATGCGCAT	0.161
AGGAACTA	0.0173
AGAATTGA	-0.0591

Sequence	binding signal [E-score]
ACGACGCT	-0.0998
AAGGTCCT	-0.304
AACACGGC	-0.177
ATATTTCG	0.347
ACTTTTCC	-0.15
AATCAGCG	0.312
ACTATAGA	-0.0521
AGCGAGAG	-0.0344
AGCTTGAA	-0.115
ATAGTCTC	-0.0881
AGTACCTC	-0.157
AGTAGGAC	-0.018
AGCTTGCA	-0.143
ACTTAGTG	-0.0215
ATTATGGA	0.277
AGCCGGCT	-0.307
ATCAGGGA	0.0964
ACACAGAC	-0.0103
AGGCGTCG	-0.218
AAGGAAAT	0.348
